We go through 167 variants from the RNAGym collection of RNA variant scans (doi:10.7554/elife.90254).

The chains are these.
B1: LINE1-mini (parent)
chain: GGCAGAGCUCAACACAGCGUGGCAAAGUGGCUGUGGCUAGACUGCC

Read counts are not given, so values of variants with three or more changes are uncertain.

The variants in the series derive from B1. Description: self-cleavage, relative activity (ratio to wild type); higher = more cleavage; in vitro, sequencing; the parent is a self-cleaving ribozyme.
As to G2C C3A A6G G17U G19A G27C C46A, the self-cleavage was 0.06.

As for G2C C3A C10A A24C U32C G35A, the self-cleavage came to 0.01.

G2C A12U U34G C37A: the self-cleavage was 0.01.

As for G2A U20C C31U, the self-cleavage worked out at 0.29.

G2C A6C U34G: the self-cleavage stood at 0.13.

In the case of G2C A12G G22C G44A, the self-cleavage worked out at 0.25.

Regarding G2C A12C A14U A24G G27U G29C G44C C45A, the self-cleavage was 0.01.

On to G2A U32C C37U, for which the self-cleavage is 0.12.

As for G2C C3G C10A G17A G19U, the self-cleavage was 0.04.

On to G2C A14C G17A U32A G36A, for which the self-cleavage came out at 0.14.

In the case of G2A G27U G33C, the self-cleavage was 0.05.

In the case of G2C C3U G5C A11G A25U C42A, the self-cleavage was found to be 0.05.

Take G2C A4G G5A U9A A12C C13U G17U A25U: the self-cleavage turned out to be 0.03.

For the variant G2C A12C C23A G35U, the self-cleavage amounted to 0.07.

Consider G2C A24G U43C, for which the self-cleavage was found to be 0.

Regarding G2A G29U U32C, the self-cleavage worked out at 0.4.

As to G2C A14G U32A G33A, the self-cleavage turned out to be 0.1.

As for G2A U34G G44U, the self-cleavage is 0.04.

Turning to G2A G21A G30A G33C, the self-cleavage worked out at 0.02.

For G2A U9C C37G, the self-cleavage was 0.03.

As to G2A U20A C31G, the self-cleavage came out at 0.11.

G2C A6U U38A C45A: the self-cleavage stood at 0.37.

With G2C A11C A12C U32G, the self-cleavage worked out at 0.01.

On to G2C A6C C18G, for which the self-cleavage came to 0.

Take G2C A4U G30U C46G: the self-cleavage is 0.07.

In the case of G2C A6C G22A C37U, the self-cleavage was 0.02.

With G2A U20G G22C G36C A41G, the self-cleavage was found to be 0.02.

For the variant G2C A6G C10U A14C C15G G19U, the self-cleavage stood at 0.01.

Take G2C C3U A12G A14U: the self-cleavage was 0.06.

Consider G2A G19C G22U, for which the self-cleavage worked out at 0.07.

Consider G2A G17C G36C, for which the self-cleavage came out at 0.08.

Regarding G2A G21A G40U, the self-cleavage is 1.19.

Consider G2C A4G A6U G7C G19C A39G, for which the self-cleavage turned out to be 0.07.

Take G2A U20A G33A G35A: the self-cleavage was 0.11.

For the variant G2A G19A G21U G30C A39G A41G C42G, the self-cleavage stood at 0.13.

G2C A26C G27C U28A G35C: the self-cleavage is 0.03.

Consider G2A U9G G17A U20G U38C, for which the self-cleavage is 0.28.

Regarding G2C C3U G7C G17C, the self-cleavage was determined as 0.16.

Turning to G2A G21A A41C G44A, the self-cleavage was determined as 0.19.

For the variant G2C A12U G17U, the self-cleavage is 0.02.

For G2C A14G C23A, the self-cleavage worked out at 0.35.

For G2C C3U U28G, the self-cleavage came out at 0.15.

In the case of G2C A14U G22C G27C U43G, the self-cleavage turned out to be 0.03.

Consider G2C A16G C46G, for which the self-cleavage amounted to 0.03.

Turning to G2A G22C G27U U43G, the self-cleavage stood at 0.09.

In the case of G2A U28C C31A U32G G36U G44C, the self-cleavage is 0.13.

Regarding G2A G35C G36A, the self-cleavage is 0.36.

Turning to G2A U43C C45G, the self-cleavage is 0.84.

Consider G2C A4G G40C, for which the self-cleavage amounted to 0.16.

G2A U28G C45G: the self-cleavage stood at 0.27.

In the case of G2C A12C C13A U28C G33C, the self-cleavage came out at 0.01.

G2C A12C C15A U38A C46A: the self-cleavage amounted to 0.03.

For the variant G2A G27C C31G, the self-cleavage amounted to 0.14.

Turning to G2C A4G A14G U20G G33C G36C, the self-cleavage stood at 0.02.

In the case of G2A G17U G33A A41G, the self-cleavage came out at 0.11.

In the case of G2A U20G C45A, the self-cleavage was 0.45.

With G2C A6U U9C C23A G40U, the self-cleavage was 0.1.

G2C C3G G5U C18G: the self-cleavage is 0.03.

In the case of G2C A39C C45A, the self-cleavage was found to be 0.01.

Consider G2C C3A A6U C10G G22C, for which the self-cleavage is 0.03.

G2C C3A G7U C8G C23U: the self-cleavage came out at 0.25.

On to G2C A11U C15G C18U U20G, for which the self-cleavage is 0.02.

As to G2C A11C A24U A26C G35C, the self-cleavage stood at 0.01.

Consider G2C C3U A4U U20A G21C A26G U38A, for which the self-cleavage turned out to be 0.02.

For G2A U9C G29C G33C, the self-cleavage was 0.05.

As for G2C A4C U20A G33U, the self-cleavage stood at 0.01.

For the variant G2A U32A C46A, the self-cleavage was found to be 0.06.

Regarding G2A G27C G30A, the self-cleavage was determined as 1.19.

Turning to G2C A14G G40A, the self-cleavage amounted to 0.01.

G2C C3U C13U A16G G27A C46U: the self-cleavage was 0.02.

Take G2C A14U A16G A24U G33A A41U: the self-cleavage is 0.08.

G2A U28C G30U A41U: the self-cleavage stood at 0.3.

In the case of G2A G19C G22A U43A, the self-cleavage was 0.05.

For G2A G22C U32A, the self-cleavage is 0.16.

Consider G2C C3U G22U U32A, for which the self-cleavage was determined as 0.06.

Take G2C A6G G21A: the self-cleavage amounted to 0.21.

As to G2A U20G A24C C31A, the self-cleavage came to 0.05.

For the variant G2A G17U G35U U38A G44U C46G, the self-cleavage was 0.09.

On to G2C C3U A26C U32C, for which the self-cleavage was 0.1.

As to G2C A12C G21U U28C G35U C46A, the self-cleavage worked out at 0.01.

With G2C A4C C13A U28G G33C, the self-cleavage came to 0.01.

G2C A4U G29U: the self-cleavage amounted to 0.18.

In the case of G2C C3G C23A A41U, the self-cleavage amounted to 0.17.

As to G2A G21U C31U, the self-cleavage was 0.19.

For the variant G2C A12U G17U A24U U28A G35C U38A, the self-cleavage was 0.07.

Take G2C A39G C42A: the self-cleavage amounted to 0.11.

In the case of G2C A12G G36U G44A, the self-cleavage turned out to be 0.03.

Consider G2A G35A A39C, for which the self-cleavage is 0.09.

As to G2A G27A C45G, the self-cleavage turned out to be 0.44.

Turning to G2A U9A A25C G27C A39C, the self-cleavage is 0.28.

As to G2C C3G C13U C18U C45A, the self-cleavage was 0.01.

In the case of G2A U9G C15U G22U U28C G29A, the self-cleavage worked out at 0.34.

G2C A12C C23U: the self-cleavage worked out at 0.03.

As for G2A G36C U38A, the self-cleavage is 0.2.

G2A U9C A26C G36U: the self-cleavage was found to be 0.03.

With G2A G17A U43C, the self-cleavage worked out at 0.09.

For the variant G2C C3G C8U C10G A12C G36A, the self-cleavage was found to be 0.01.

Regarding G2C A4U C8G A39C C46U, the self-cleavage turned out to be 0.04.

Turning to G2C A16C A24C C46A, the self-cleavage came to 0.03.

In the case of G2C A11C A14C G21C A24C U34A A39U, the self-cleavage was found to be 0.01.

Turning to G2C A11U C46A, the self-cleavage was determined as 0.05.

In the case of G2A G21C C31G, the self-cleavage was determined as 0.1.

With G2A G21A A25G, the self-cleavage turned out to be 2.71.

Take G2A G22U U43C: the self-cleavage stood at 0.08.

Regarding G2C C3A G27U U28A, the self-cleavage is 0.7.

Turning to G2A G19C G29A, the self-cleavage stood at 0.07.

On to G2A U9A U20C, for which the self-cleavage was found to be 0.13.

In the case of G2C C3U U20A C46A, the self-cleavage was found to be 0.15.

For G2C A11C A14U G29U, the self-cleavage stood at 0.06.

Turning to G2C A16U G19U, the self-cleavage stood at 0.05.

For G2C A16U C42A U43C, the self-cleavage is 0.09.

As to G2C C3U A6U C10A A16G, the self-cleavage was 0.04.

Consider G2A U20A G40A, for which the self-cleavage came out at 0.07.

Take G2A U32C G33U G44A: the self-cleavage is 0.23.

With G2C A12G A25U, the self-cleavage amounted to 0.03.

For G2C C3G U20A, the self-cleavage is 0.06.

In the case of G2C A6C G30A C37A G44C, the self-cleavage worked out at 0.08.

In the case of G2A U9C A12C C13A G35A, the self-cleavage was 0.02.

As to G2A U9C G33U, the self-cleavage was 0.06.

Regarding G2C A11C G29C C42G, the self-cleavage worked out at 0.

Consider G2C A6G A16G, for which the self-cleavage came out at 0.06.

With G2C A4U A25G, the self-cleavage came out at 0.07.

With G2C A4G G21C C31U C37U, the self-cleavage is 0.02.

As to G2A U9A G17U G35U U38A G40C, the self-cleavage was 0.01.

Take G2C A11U G17U: the self-cleavage stood at 0.03.

As for G2A U20A U34C C46A, the self-cleavage came out at 0.13.

G2C A24U G29A G33A: the self-cleavage turned out to be 0.12.

Consider G2C C3U C10A C18G, for which the self-cleavage stood at 0.11.

For G2C A16U G17A G33C G40U, the self-cleavage was determined as 0.02.

Regarding G2A U9G C15A U20A G22C A26C G27A, the self-cleavage is 0.41.

For the variant G2C A4G G30C, the self-cleavage is 0.07.

In the case of G2C A4C G17U G33U, the self-cleavage was determined as 0.02.

As to G2A G22C A26G A41C, the self-cleavage came to 0.04.

Turning to G2C A4U A11U C23G G30U C45G, the self-cleavage turned out to be 0.08.

In the case of G2C A4U A12G A26C, the self-cleavage is 0.25.

Turning to G2C A4C U20A A26C G27U, the self-cleavage was 0.04.

As to G2A G29C G30A, the self-cleavage came out at 0.42.

On to G2A G19U G33C C37G, for which the self-cleavage came to 0.09.

G2C A11C G27A: the self-cleavage worked out at 0.01.

With G2C C3A A14C G27A G35A, the self-cleavage came to 0.08.

As to G2C A24U U28C, the self-cleavage is 0.05.

Regarding G2C A4U G29U G44U, the self-cleavage amounted to 0.04.

For the variant G2C A11U C23A U28G G36C, the self-cleavage was 0.01.

In the case of G2C A4G G7C C8U C15A C23G, the self-cleavage worked out at 0.39.

Consider G2A G36U C42A, for which the self-cleavage came out at 0.04.

As to G2A G35A C37U, the self-cleavage was determined as 0.21.

Consider G2C A16G G19U C37U, for which the self-cleavage was 0.02.

Turning to G2C C3A A6U G19U A24C C42G, the self-cleavage stood at 0.02.

G2C A6U G7C A11U A14C A41C: the self-cleavage came to 0.01.

Consider G2C A6U C8U A12C G35A G44A, for which the self-cleavage stood at 0.05.

Take G2C A6G C15U G29A C37U C42G: the self-cleavage was determined as 0.02.

As to G2A G19U A24G G33A, the self-cleavage was 0.2.

As to G2A G36A C37A, the self-cleavage turned out to be 0.81.

G2A U9G C15A: the self-cleavage was determined as 0.2.

As for G2C A25G A26U G35A, the self-cleavage stood at 0.21.

Regarding G2C A4C A14C A39G, the self-cleavage amounted to 0.16.

On to G2A U43A C46A, for which the self-cleavage was 0.09.

Regarding G2C C3A A16G G27U C31A, the self-cleavage was determined as 0.03.

With G2C C3U A4U, the self-cleavage was found to be 0.

G2A G36U C37A: the self-cleavage amounted to 0.38.

In the case of G2C A25U U32C U43A, the self-cleavage was determined as 0.09.

For the variant G2A U9A A25U G30C C31A C46U, the self-cleavage was 0.06.

Turning to G2A G29C G40C, the self-cleavage came out at 0.1.

As to G2C C8A A11C G19U G40U C42A, the self-cleavage was 0.01.

With G2A G19A U20A G21C A24U, the self-cleavage was found to be 0.33.

In the case of G2C C3U A16C U34C G36U G44C, the self-cleavage worked out at 0.04.

In the case of G2C A24G G29U, the self-cleavage was found to be 0.2.
